According to publication PMC12136788:
The other results are listed elsewhere or left out.

T1: UNK ZnF1-3 (human, UniProt Q9C0B0 31-174)
T1 sequence: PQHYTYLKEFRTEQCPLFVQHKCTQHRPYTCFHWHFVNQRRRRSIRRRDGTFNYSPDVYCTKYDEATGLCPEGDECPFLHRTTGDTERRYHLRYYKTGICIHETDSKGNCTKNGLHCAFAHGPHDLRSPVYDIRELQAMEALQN

B1: 246755086_246755206_551_CDS_ENSG00000162852_ENST00000366513|human|control|control (ssRNA)
RNA: GGGAGUUCUACAGUCCGACGAUCUGGACUUCUUUUUCCAGGAAUUUUUUUGUCCUUUCCCAAGAAGGCCUGUUCAUCUCUGGAGGCUUCACAAAGGGUGUUUUGCAAGUUCUCACCUGCAGCCACCUCGCAGCUCAAUGUGCACAACAGAGGAUUGAGCAUCA
B2: chr4:156296975:156296976:-_ENSG00000164114_ENST00000311277|hu_hu|FALSE|FALSE (ssRNA)
RNA: GGGAGUUCUACAGUCCGACGAUCUCCUGGAAAGUAGUUCUUUUGGUAACUUUUGGACUCUUUGUAUAUGCCAAAGUGGUGCUAAAAACUUCAUCAGACAUAGUGUAUUUUUUCUCGUUACCUUUAUAAAAUAGCUAAUUAUUACAACAGAGGAUUGAGCAUCA
B3: chr3:103125490:103125491:+_ENSMUSG00000033014_ENSMUST00000106860|mus_mus|motif|central (ssRNA)
RNA: GGGAGUUCUACAGUCCGACGAUCAAGAAGCUUAGCCAACAGAUUUUCAAUUGCACCUUUCUGAUUUUGAAAAGCCUCUUCGGAAAACUGAUACCUAUGUUCUUUGUGCUCCAAAAGUUGACAGUCUCUACACGUCAAUCUAUCCAACAGAGGAUUGAGCAUCA
B4: 83926487_83926607_3978_CDS_ENSMUSG00000030016_ENSMUST00000032088|mouse|control|control (ssRNA)
RNA: GGGAGUUCUACAGUCCGACGAUCCCUUUCUUCUAUGAAGACACUGUCAGAUACUGCUAAUUCAGUUUCAGGGUUUGUAACUUCUGCCUCUUCCUUUUCAAAGUCACUGGUGUACAUCUGCUGGUUUAAAGCAGACUCAUCUAUCAACAGAGGAUUGAGCAUCA
B5: chr7:141445308:141445309:+_ENSG00000106028_ENST00000265304|hu_hu|hu_hu_hu_mus_False|88_98 (ssRNA)
RNA: GGGAGUUCUACAGUCCGACGAUCUAUGAUUGUUGUUGCUUGUCGCCUCACAUUAUUUUUAUCCAUGUACUCGCCAUAGUCCACUUUCCCUUCCACAAAUAUACGAGCCCCCUUUUUCACAUACUGAUAUGCCACAUCUCUGAGCAACAGAGGAUUGAGCAUCA
B6: chr9:21312366:21312367:-_ENSMUSG00000032180_ENSMUST00000034698|mus_hu|motif|central (ssRNA)
RNA: GGGAGUUCUACAGUCCGACGAUCCUUGUUAGGCCCUGCCCCGCACCAGGCAACGCUAACACAGGAUGGGAGGCUUAGGCGGAGGCACAUUUACAGUAGAGGGGCCAGGAAAUCCGAGGCUCACGUUCCAACGCUGCAGUGCCCCAACAGAGGAUUGAGCAUCA
B7: chr17:65740002:65740003:+_ENSG00000130935_ENST00000581375|hu_hu|hu_hu_hu_mus_False|48_108 (ssRNA)
RNA: GGGAGUUCUACAGUCCGACGAUCAACCCGUUCUUGCUCCCUGGACGAACAGGAAGAUUCAUAUUAAAAAAAAUAUAUAUCCAUCAAGGAGAAUUGAGUGGCCACACCUUUACUCCCAGCACUUUGGGAGGUGGAUCUCUGAGUCAACAGAGGAUUGAGCAUCA
B8: chr8:94190273:94190274:+_ENSMUSG00000055932_ENSMUST00000069718|mus_hu|FALSE|FALSE (ssRNA)
RNA: GGGAGUUCUACAGUCCGACGAUCGUUUUGCUUCCAGAAGCUGACCUCUGAGUUCUGAAACGAUGUCUGUGAGGUCAAACGGCAGAGGCAUCGAAGCAUCAUCCUUUUCCCAGUAUGGCCGACAUUCUGGCUUCUGAUCAGCAGCAACAGAGGAUUGAGCAUCA
B9: chr4:48381769:48381770:+_ENSG00000109171_ENST00000512093|hu_hu|FALSE|FALSE (ssRNA)
RNA: GGGAGUUCUACAGUCCGACGAUCCUUAUAAUUGGAUCCAAUUGAAUCUUCAUCUAAUUCUGAAGCACUUAACUCACUAUCUAUAGAGGACUGAGGACUGAGUGGAGGAUUUCUGUCUGAGCUUUUCAAGUUACCUGAAUUUCCCAACAGAGGAUUGAGCAUCA
B10: chr1:225611761:225611762:-_ENSG00000143815_ENST00000272163|hu_mus|hu_hu_hu_mus_True|18_108 (ssRNA)
RNA: GGGAGUUCUACAGUCCGACGAUCCCAGGCCAUCGACCUCUGACCACUUCACCCUCAACAAACUUCCUACUUGGCAUUUUCUAAAAUUAGUCUGGCCGCGCUCCGGCGGGAACUCCAGACGGCUCCCGACAGUCACCAGCAGCCCAACAGAGGAUUGAGCAUCA
B11: chr19:36179134:36179135:+_ENSMUSG00000024800_ENSMUST00000025714|mus_hu|FALSE|FALSE (ssRNA)
RNA: GGGAGUUCUACAGUCCGACGAUCUUGUUUAUCACUUACACAAAGGAGAAAUAACCAGUCUUUCUCUCUUAAAGUACAUCUAAAUUCAUUAAGCUGGCAGCCUUUUAAAAAGAUGCUUCACUAGGUUUCGUUUGUUGUUUUAAUCAACAGAGGAUUGAGCAUCA
B12: 138451259_138451379_2310_CDS_ENSG00000189184_ENST00000344876|human|control|control (ssRNA)
RNA: GGGAGUUCUACAGUCCGACGAUCUUUGUCCUGAAUGAUAACUGACAGCUCCCAUUCUGUGUAGGGAACAGAAUCCAUGCUAACGUUGGUAUGGAUGUCACAUGAUCGUGGAUCAAUUAUGAAGAUAUUCUCCUCAUUACCUGCCAACAGAGGAUUGAGCAUCA
B13: 31619300_31619420_303_3pUTR_ENSG00000169926_ENST00000307145|human|control|control (ssRNA)
RNA: GGGAGUUCUACAGUCCGACGAUCGCCAUGCUGCGGGCUGGGGCCGGCGGCGGUGCUCUUGCUGCGAGUCGUCAGCCGCGCAUCCGCACCCACGGCCUCGGGAGAGCGGGCGGGGGGCGGGGGCGCGGCGCGCCCUCUCCUCGGCAACAGAGGAUUGAGCAUCA
B14: chr8:104442852:104442853:+_ENSG00000164934_ENST00000297579|hu_hu|motif|central (ssRNA)
RNA: GGGAGUUCUACAGUCCGACGAUCUCUCAUAUCUAAGAUAACCUUUUUCAAAGGAGUAGCUUGCCUCAUAUCGUACAGUACGGUAUUCCUGUCAGAUGCACAACUUCCCAAGAGAAAUGUCUCAAUUGGGUUAAAUUUAACACUCAACAGAGGAUUGAGCAUCA

Biological target: T1, UNK ZnF1-3
Assay: nsRBNS (natural sequence RNA bind-n-seq); RBNS binding buffer (assumed for nsRBNS): 25 mM Tris pH 7.5, 150 mM KCl, 3 mM MgCl2, 0.01% Triton X-100, 500 ug/ml BSA, 20 U/ml SUPERase-In, 4 C; UNK is unkempt and MSI1 is Musashi-1; names of the RNAs are library labels; protein concentration not given here; high values mean tight binding

| Binder | binding signal |
| --- | --- |
| B1 | 0.491 enrichment R |
| B2 | 0.766 enrichment R |
| B3 | 1.12 enrichment R |
| B4 | 0.511 enrichment R |
| B5 | 0.68 enrichment R |
| B6 | 0.723 enrichment R |
| B7 | 1.58 enrichment R |
| B8 | 0.847 enrichment R |
| B9 | 2.65 enrichment R |
| B10 | 1.37 enrichment R |
| B11 | 0.979 enrichment R |
| B12 | 0.39 enrichment R |
| B13 | 0 enrichment R |
| B14 | 0.814 enrichment R |
